{"source": "PubChem BioAssay AID463173", "about": "(ICCB-Longwood Screening Facility, Harvard Medical School, 2010)", "note": "Hit rate of the full screen: of about 52,000 compounds, about 1,700 (3.3%) were called active. Cut-off read from the data, not from the text of the source: active = survival mostly below about 52% (no sharp cut-off); inactive = mostly above about 56%. Some of the results follow.", "data": [{"test_system": "Wild type", "test": "S. aureus survival, RN4220 and DeltatarO strains – OD600, teichoic acid synthesis inhibitors, primary screen (AID 463173)", "details": "S. aureus RN4220 wild type/DeltatarO growth, OD600, 18 h, stronger effect = lower value, screened at 18.75 µg/mL (by protocol)", "values": [{"smiles": "CCOc1ccc(CCNC(=O)c2cc3n(n2)CCCN(Cc2ccc(C)cc2)C3=O)cc1OCC", "survival": "inactive: 118%"}, {"smiles": "Cc1cc(-c2ccc(C)c(S(=O)(=O)Nc3ccc(C)c(N(C)C)c3)c2)on1", "survival": "inactive: 71%"}, {"smiles": "O=C(NC1(C(F)(F)F)N=C(c2ccccc2)N(Cc2ccccc2)C1=O)c1ccc(F)cc1", "note": "(stereo not drawn)", "survival": "inactive: 77%"}, {"smiles": "O=C(CCCc1nc(-c2ccc(Cl)cc2)no1)NCc1ccco1", "survival": "inactive: 88%"}, {"smiles": "CCN(CC)c1cc(NC2CCCCC2)c2c3c(onc13)-c1ccccc1C2=O", "survival": "active: 5%"}, {"smiles": "CC1CCN(S(=O)(=O)c2ccc3c(c2)N(CC(=O)N(C)Cc2ccccc2)C(=O)CO3)CC1", "survival": "inactive: 91%"}, {"smiles": "Cn1cnc(S(=O)(=O)N2CCC(C(=O)Nc3ccc(OC(F)(F)F)cc3)CC2)c1", "survival": "inactive: 83%"}, {"smiles": "C/C(=N\\NC(=O)C(F)(F)F)c1ccccc1O", "survival": "inactive: 112%"}, {"smiles": "O=C(c1ccc2c(c1)N(Cc1ccccc1)C(=O)c1ccccc1S2(=O)=O)N1CCC(Cc2ccccc2)CC1", "survival": "inactive: 80%"}, {"smiles": "Cc1cc(C)c(NC(=O)Cn2nnc3sc4c(c3c2=O)CCC(C(C)(C)C)C4)c(C)c1", "note": "(stereo not drawn)", "survival": "inactive: 83%"}, {"smiles": "Cc1ccccc1CN1C(=O)C(O)(c2c[nH]c3ccccc23)c2cc(Cl)ccc21", "note": "(stereo not drawn)", "survival": "active: -11%"}, {"smiles": "COc1cccc(CNC(=O)C2CCCN(c3nn4cc(-c5ccc(C)cc5)nc4s3)C2)c1", "note": "(stereo not drawn)", "survival": "inactive: 80%"}, {"smiles": "O=c1c2sc3ccccc3c2n(Cc2cccc(Cl)c2)c(=O)n1Cc1ccc(F)cc1", "survival": "inactive: 80%"}, {"smiles": "Cc1nc2cc3ccccc3cc2c(=O)[nH]1", "survival": "inactive: 110%"}, {"smiles": "CCCCN1C(C(=O)c2ccccc2)=C(OC(=O)CC)c2ccccc2S1(=O)=O", "survival": "active: 0%"}, {"smiles": "COc1cc(C2c3c(-c4ccccc4O)n[nH]c3C(=O)N2Cc2ccncc2)cc(OC)c1OC", "note": "(stereo not drawn)", "survival": "inactive: 89%"}, {"smiles": "N#Cc1c(NC(=O)c2ccco2)sc2c1CCCC2", "survival": "inactive: 104%"}, {"smiles": "COc1ccc(CNC(=O)C2CCN(C(=O)N3CCOc4ccc(C)cc43)CC2)cc1", "survival": "inactive: 80%"}, {"smiles": "CC(C)Cn1c(SCC(N)=O)nc2ccccc2c1=O", "survival": "inactive: 99%"}, {"smiles": "CCc1cc(C(=O)N2CCN(c3ccccc3)CC2)no1", "survival": "inactive: 69%"}, {"smiles": "CC1CCCN(C(=O)c2ccc(CSc3nc4ccncc4n3Cc3ccccc3)cc2)C1", "note": "(stereo not drawn)", "survival": "inactive: 107%"}, {"smiles": "O=C(NCc1ccc(Cl)cc1)c1cc2cccc3c2n1CCS3", "survival": "inactive: 73%"}, {"smiles": "N#C/C(=C\\Nc1ccccc1O)c1nc2ccccc2o1", "survival": "inactive: 41%"}, {"smiles": "Cc1nnc(SCCNS(=O)(=O)c2ccccc2)s1", "survival": "inactive: 107%"}, {"smiles": "Cc1cccc(-n2c(=O)c3c(c4cc(C)ccc4n3C)n(CC(=O)Nc3ccc(C)c(C)c3)c2=O)c1", "survival": "inactive: 71%"}, {"smiles": "COc1ccccc1N1CCN(c2c3c(nc4nncn24)CCC3)CC1", "survival": "inactive: 87%"}, {"smiles": "CC(C)(C)NC(=O)Cn1cc(S(=O)(=O)Cc2ccccc2Cl)c2ccccc21", "survival": "inactive: 68%"}, {"smiles": "Cc1cccc(NC(=O)Cn2c(=O)n(Cc3nc(-c4ccccc4)no3)c(=O)c3ccccc32)c1", "survival": "inactive: 69%"}, {"smiles": "COC(=O)c1sccc1S(=O)(=O)N(CC(=O)NCc1ccc(F)cc1)c1ccccc1", "survival": "inactive: 69%"}, {"smiles": "COc1ccc(C)cc1NS(=O)(=O)c1ccc2c(c1)CCCN2C(C)=O", "survival": "inactive: 131%"}, {"smiles": "C=C(C)CC1N(CCc2ccccc2)C(=O)C2C(C(=O)O)C3C=CC21O3", "note": "(stereo not drawn)", "survival": "inactive: 111%"}, {"smiles": "CCOC(=O)Cn1c(=N)n(CCOc2ccc(OC)cc2)c2ccccc21", "survival": "inactive: 70%"}, {"smiles": "COc1ccc(-c2nc(SCC(=O)NCC3CCCO3)c(-c3ccc(C)cc3)[nH]2)cc1OC", "note": "(stereo not drawn)", "survival": "inactive: 73%"}, {"smiles": "CCCCNC(=O)CN1CCN(c2ccc(NC(=O)c3ccc(OC)cc3)cc2C(=O)O)CC1", "survival": "inactive: 80%"}, {"smiles": "COc1ccc(NC(=O)N2CCN(Cc3nc4ccc(C)cc4o3)CC2)cc1OC", "survival": "inactive: 99%"}, {"smiles": "CN(C)c1ccc(-c2nnc(-c3cccnc3)o2)cc1", "survival": "inactive: 109%"}, {"smiles": "COc1ccc(-c2c(C#N)c(SCC(=O)Nc3ccc(C)c(C)c3)nc(C)c2C(=O)Nc2ccccc2)cc1OC", "survival": "inactive: 85%"}, {"smiles": "Cc1ccc(N(C)S(=O)(=O)c2nnc(NC(=O)c3ccco3)s2)cc1", "survival": "inactive: 69%"}, {"smiles": "COc1cc2nc(NC(=O)c3ccc(S(=O)(=O)N4CCOCC4)cc3)sc2cc1OC", "survival": "inactive: 79%"}, {"smiles": "O=C(CSc1nc2sc3c(c2c(=O)[nH]1)CCCC3)NCc1cccs1", "survival": "inactive: 99%"}, {"smiles": "O=C1CN=C(Nc2ccccc2Cl)N1Cc1ccccc1", "survival": "inactive: 107%"}, {"smiles": "CCCS(=O)(=O)N1CC(=O)N(c2ccc(Cl)cc2C)C(C)(C(=O)NC2CCCC2)C1", "note": "(stereo not drawn)", "survival": "inactive: 127%"}, {"smiles": "Cc1ccc(OC(=O)c2ccc3snnc3c2)cc1", "survival": "inactive: 109%"}, {"smiles": "COc1ccc(NC(=O)CSC2=Nc3ccccc3C3=NC(CCC(=O)NC4CCCCC4)C(=O)N23)cc1", "note": "(stereo not drawn)", "survival": "inactive: 81%"}, {"smiles": "CC(=O)N1CCN(c2ccccc2F)CC1", "survival": "inactive: 107%"}, {"smiles": "CCOC(=O)c1cccc(NC(=O)CCn2c(-c3ccc(F)cc3)cc(C(=O)OCC)c2C)c1", "survival": "inactive: 81%"}, {"smiles": "CCC(SC1=NCCS1)C(=O)Nc1ccccc1OC", "note": "(stereo not drawn)", "survival": "inactive: 98%"}, {"smiles": "O=c1[nH]c2cc3c(cc2cc1C(c1nnnn1C1CCCC1)N1CCc2ccccc21)OCCO3", "note": "(stereo not drawn)", "survival": "inactive: 104%"}, {"smiles": "CC(=O)c1cccc(NC(=O)C2CCN(S(=O)(=O)c3ccc4c(c3)oc(=O)n4C)CC2)c1", "survival": "inactive: 90%"}, {"smiles": "COc1c(C)cccc1C(=O)Nc1cccc2ccc(C)nc12", "survival": "active: -14%"}, {"smiles": "O=C(CSCc1ccccc1Cl)N1CCN(c2ccc(Cl)cc2)CC1", "survival": "inactive: 81%"}, {"smiles": "CC1CCCCN1S(=O)(=O)c1ccc(S(=O)(=O)NCc2ccc(F)cc2)cc1", "note": "(stereo not drawn)", "survival": "inactive: 109%"}, {"smiles": "COc1ccc(Cn2ccn(Cc3cccc(OC)c3)c(=O)c2=O)cc1", "survival": "inactive: 82%"}, {"smiles": "CCOC(=O)C1CCN(C(=O)c2ccc(-n3ccc4ccccc43)s2)CC1", "survival": "inactive: 71%"}, {"smiles": "Cc1ccccc1C1CC(=O)Nc2ccc3ccccc3c21", "note": "(stereo not drawn)", "survival": "inactive: 84%"}, {"smiles": "Cc1cccc(NC(=O)N2CC(=O)Nc3sc4c(c3C2c2ccccc2)CCCC4)c1C", "note": "(stereo not drawn)", "survival": "inactive: 76%"}, {"smiles": "Cc1ccc(C(=O)c2cn(CC(=O)Nc3ccc(C)cc3Cl)c3nc(C)ccc3c2=O)cc1", "survival": "inactive: 95%"}, {"smiles": "CCOc1cc(CNC(=O)c2ccc3c(c2)NC(=O)C2CCCCN32)cc(OCC)c1OCC", "note": "(stereo not drawn)", "survival": "inactive: 94%"}, {"smiles": "Cc1ccc(Cl)cc1N1CCN(C(=O)c2ccc3c(c2)N(Cc2ccc(F)cc2)CCS3)CC1", "survival": "inactive: 83%"}, {"smiles": "Cc1cn2c(=O)cc(COC(=O)c3ccc(NC(=O)COc4ccccc4F)cc3)nc2s1", "survival": "inactive: 85%"}, {"smiles": "CCOc1ccccc1OCCCn1c(-c2ccc(Cl)cc2)nc2ccccc2c1=O", "survival": "inactive: 46%"}, {"smiles": "Cc1cc(C)cc(-n2c(-c3ccccc3)c(C)n3c4c(=O)n(C)c(=O)n(C)c4nc23)c1", "survival": "inactive: 79%"}, {"smiles": "COc1ccc(CN(C(=O)CSc2nnc(-c3ccc(OC)c(OC)c3)o2)c2ccc(F)cc2)cc1", "survival": "inactive: 99%"}, {"smiles": "Nc1nn(-c2ccccc2)nc1NC=O", "survival": "inactive: 106%"}, {"smiles": "CCOc1ccc(CCNC(=O)Cn2nc(CC)n3c(cc4ccccc43)c2=O)cc1", "survival": "inactive: 81%"}, {"smiles": "Cc1ccc(S(=O)(=O)N(C)c2c(C)ccc(S(=O)(=O)n3nc(C)cc3C)c2C)cc1", "survival": "inactive: 120%"}, {"smiles": "COc1ccc(-c2c3c(=O)n(C)c(=O)n(C)c3c3n2-c2ccccc2NC3c2ccco2)cc1", "note": "(stereo not drawn)", "survival": "inactive: 57%"}, {"smiles": "Cc1cc(=O)n(CC(=O)N2CCN(c3ccccc3F)CC2)c2c1c(C)nn2C", "survival": "inactive: 66%"}, {"smiles": "CCc1ccccc1NC(=O)c1cnc(N2CCCCC2)c2ccccc12", "survival": "inactive: 72%"}, {"smiles": "COc1cc(C(=O)NCC(c2cccs2)S(=O)(=O)c2cccs2)cc(OC)c1OC", "note": "(stereo not drawn)", "survival": "inactive: 67%"}, {"smiles": "CCOC(=O)c1[nH]c(C)c(CCC(=O)Nc2cc(C)ccc2OC)c1C", "survival": "inactive: 82%"}, {"smiles": "CCC(Sc1nc(-c2ccccc2F)nc2c1Cc1c(CO)cnc(C)c1O2)C(=O)Nc1cc(C)ccc1C", "note": "(stereo not drawn)", "survival": "inactive: 87%"}, {"smiles": "CCOc1ccc(CCNC(=O)C2=C(C)C(=O)OC23CCCCC3)cc1", "survival": "inactive: 76%"}, {"smiles": "CCN1C(=O)c2ccccc2S(=O)c2ccc(C(=O)N3CCN(c4cc(Cl)ccc4C)CC3)cc21", "note": "(stereo not drawn)", "survival": "inactive: 89%"}, {"smiles": "Cc1ccccc1CN1CCC(CNC(=O)c2c(C)oc3ncnc(N4CCCCC4)c23)CC1", "survival": "inactive: 72%"}, {"smiles": "CN(Cc1ccccc1)C(=O)c1ccc2c(c1)N(Cc1ccccc1Cl)C(=O)c1ccccc1S2", "survival": "inactive: 80%"}, {"smiles": "Fc1ccc(-c2noc3ncnc(NCc4ccc(Cl)cc4)c23)cc1", "survival": "inactive: 66%"}, {"smiles": "O=C(CCn1c(=O)c2cccn2c2cccnc21)NCc1ccc(F)cc1", "survival": "inactive: 87%"}, {"smiles": "COc1cc(C2CC(=O)Oc3c2c(=O)n(C)c2ccccc32)ccc1O", "note": "(stereo not drawn)", "survival": "inactive: 64%"}, {"smiles": "COc1ccc(C(=O)NC2(C(F)(F)F)C(=O)Nc3c2c(=O)[nH]c(=O)n3CCc2ccc(OC)c(OC)c2)cc1", "note": "(stereo not drawn)", "survival": "inactive: 75%"}, {"smiles": "CCOC(=O)c1c(C)[nH]c(C)c1S(=O)(=O)N(C)CC(=O)Nc1ccc(C)cc1C", "survival": "inactive: 78%"}, {"smiles": "CCCc1nnc(SCC(=O)N2CCCC2)n1CCOC", "survival": "inactive: 111%"}, {"smiles": "O=C(COc1ccccc1)Nc1ccc2nc(SCCOc3ccccc3)sc2c1", "survival": "inactive: 94%"}, {"smiles": "Cc1ccc(Cl)cc1N1CCN(C(=O)c2ccc(CS(=O)(=O)c3ccccc3C)o2)CC1", "survival": "inactive: 60%"}, {"smiles": "CC1=C(C(=O)OCC2CCCO2)C(c2ccccc2)NC(=O)N1", "note": "(stereo not drawn)", "survival": "inactive: 116%"}, {"smiles": "Cc1ccc(NC(=O)Cn2c(=O)n(CC3CCCO3)c(=O)c3ccccc32)cc1", "note": "(stereo not drawn)", "survival": "inactive: 84%"}, {"smiles": "Cc1cc(C)c2oc(-c3cccc(NC(=O)COc4ccc([N+](=O)[O-])cc4)c3)nc2c1", "survival": "inactive: 102%"}, {"smiles": "COc1cc(C2NC(=O)c3c(sc4c3CCN(C)C4)N2)cc(OC)c1OC", "note": "(stereo not drawn)", "survival": "inactive: 75%"}]}]}
